# Laboratory results: the supplement of paper PMC11417369
# ± gives the standard deviation of the averaged measurements. This is one part of the list.
# Test system: PfAP2-EXP AP2 domain (GST-tagged)
# Test: gcPBM binding intensity (ln(normalized median fluorescence intensity)); higher = stronger DNA binding
# Summary of the method: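 In this array assay, P. falciparum DNA-binding domains with a GST tag, expressed in E. coli, were applied for 1 h to primer-extended double-stranded 36-bp intergenic genomic probes and negative controls on an Agilent 4 × 180k array. Bound protein was visualised with Alexa488 anti-GST antibody at 488 nm. Binding intensity is the highest Masliner-normalised natural-log median intensity across replicate spots of either probe orientation.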
row,Sequence,gcPBM binding intensity (ln)
1,TTTTTTATGATTAACACACACACAAAAAAAAAAAAA [CACACA_site4130],8.36 ± 0.57
2,AAATGAAAGAACAGCACACATATATATTATATATAA [CACACA_site2002],8.53 ± 0.64
3,TTTTATATATATATATATATATATATATATGTATAT [CACACA_negctrl_site173],8.97 ± 0.014
4,AAAAAAAAAACAAATACACACGCACCCAAAAAAAAA [CACACA_site8166],8.72 ± 0.3
5,AACATATTTTTTCTTAAACACACACCGATATATATA [CACACA_site8919],8.62 ± 0.3
6,AATATATATTTCTAAGATAAAACCCAAGGATAAAAA [CACACA_negctrl_site735],8.53 ± 0.58
7,TCTGTAAATATGTATACACACATATCTGATCAATAT [CACACA_site5743],8.76 ± 0.39
8,AATGGGTTAGCACATACACACCAATATATTATAGAT [CACACA_site7444],8.65 ± 0.57
9,GCAAAATTTCCTAAGGTGCTTTTATTTTACACCGTT [GTGCAC_site9923],8.82 ± 0.29
10,CTTTTATTGCTCTATATGCACACCTTAATTCTTCAT [CACACA_site2195],9.11 ± 0.33
11,AAAACCTAAAAGTCTTAAATTTTAAATATACCTACA [GTGCAC_negctrl_site492],8.29 ± 0.35
12,TTTATTACCATATTTTGTACACACATCTTTATCTCA [XGTACX_site6842],8.99 ± 0.51
13,ATATAAATGATATGTACACACATTTATATTTATAAA [CACACA_site7600],8.47 ± 0.32
14,ACATTGACATGTCGAAGTACTCAAGAAGCATACAAT [XGTACX_site3948],8.86 ± 0.42
15,ATTAAAATGGTATGTGCGCACATAATATATATATGT [GTGCAC_site9572],9.12 ± 0.39
16,ACTCTATACATCTAATGTACATGGAAAAAAAAATTC [XGTACX_site733],8.86 ± 0.39
17,TTCTTACATAAAATATCACACACATAAAAAAACAAT [CACACA_site8576],9 ± 0.33
18,GTAATAAGAATTATAGTGCAATGTAATACATTTATA,8.47 ± 0.13
19,TGGAAAATTATTAACACACACATATAAATATATATA [CACACA_site46],8.4 ± 0.45

row,Sequence,gcPBM binding intensity (ln)
1,AATACAACATAATGAAGTACTGTATTTTATATTACT [XGTACX_site4885],8.35 ± 0.38
2,TAATTTGAACGGTACAGTACTCTTTTTCTTTTTCAT [XGTACX_site5534],8.55 ± 0.42
3,ATATATTTTTTCAATTGTACGTTTTAATAATATTTA [XGTACX_site2130],8.88 ± 0.42
4,ATGAAATCTTTAGAATATAGATGATGTTATTTAATT [XGTACX_negctrl_site511],8.11 ± 0.46
5,TTTCTTTGAATAAATACACACGAGAAATGAAAGTAG [CACACA_site8490],9.13 ± 0.4
6,TAAAGGAGCCTATGAACACACACATGTACTTATATT [CACACA_site9351],8.56 ± 0.4
7,AATTGTTTGTTTGGGTGTACATGGTTCTATATAAAT [XGTACX_site7940],9.11 ± 0.38
8,AATAAAATATAAACATTATATATATATATATATATA [GTGCAC_negctrl_site58],10.3 ± 0.38
9,ATTTTTTCTTTTTTTTTTCCGTTTTTTTGGACATTT [CACACA_negctrl_site1174],8.52 ± 0.45
10,AAATTAAACAATAAATGTACATATATATTTGTATAT [XGTACX_site1092],8.53 ± 0.47
11,ATAAAAAATAAATAAGGTACAGAACATTTATACATT [XGTACX_site1783],8.74 ± 0.36
12,AACAAGGTATTAGGGTGTACTATATATATTTATATT [XGTACX_site7776],8.51 ± 0.37
13,CTTTTTTATTTTTCAACACACATAATAAATTTCTAT [CACACA_site1037],8.62 ± 0.3
14,GGTTAAAAAAAGCATACACACTATCCTCTTTGCTCT [CACACA_site7246],8.65 ± 0.37
15,ATATTTTACAAATGCACACATAATTTTTTTTTTTTT [CACACA_site2763],8.59 ± 0.15
16,GAACCTTTAAAATACACACCCAAATCCTTTGAAATA [CACACA_site3630],8.34 ± 0.47
17,TACATAAATACATACATACACACATATATATATATA [CACACA_site2105],10 ± 0.34
18,TTTTTTTTTATATATACACACAATAAATAAATATAA [CACACA_site2954],8.34 ± 0.45
19,TAACTTTATTTTCCTGTACACACATTTGACATATTA [CACACA_site9116],8.94 ± 0.49

row,Sequence,gcPBM binding intensity (ln)
1,TCAAATTACGTAAGAACATGCGATATAAGAAATACG [TGCATGCA_site691],9.09 ± 0.4
2,CTCTAATTAATATTTGTACACACATATTTAACCTAC [CACACA_site9043],8.67 ± 0.3
3,TATATATTAATCAAAGTGCAATAATAAAATAAAAGT [GTGCAC_site9490],9.18 ± 0.29
4,AGCAGACACCAACACACACACATATATATATATATA [CACACA_site337],10.1 ± 0.38
5,TTTATACAAAAGAACAGTACAATAAAGGATTTATGA [XGTACX_site811],8.53 ± 0.29
6,CATATTCCCCCCCACACACACACACGCATACATACC [CACACA_site7148],11.1 ± 0.19
7,TAAATAAAATACAAATGTACATAAATAATAAATATA [XGTACX_site1813],8.76 ± 0.41
8,ATATAAAAAATATAAGGTACACATATATGTAGATAT [XGTACX_site6792],8.93 ± 0.42
9,AATTATTTTAAATATTGTACTATTACAGAATGGTGT [XGTACX_site5693],8.79 ± 0.43
10,CTTGGGAAGTATTCAGTGCAAAATATAAGCAGGTCA [GTGCAC_site9758],9.09 ± 0.36
11,TATATTATCAAAATGGTGCAATAATTTCTATATTAT [GTGCAC_site9772],8.46 ± 0.26
12,AAAAGAAATAAGGATACACACTATTGATAAAAGTAG [CACACA_site4309],8.79 ± 0.41
13,TATTACAAATAATACCGTACACAAATGTTTTTTTAT [XGTACX_site7977],8.4 ± 0.42
14,TCGTGGGAAAATATTACACACATTTACTATAGTATC [CACACA_site5836],8.48 ± 0.41
15,ATATATATATTGAAAAGTACATATATATATATATTA [XGTACX_site1560],9.13 ± 0.071
16,TGGATAATCAAAAATTGTACAAGTGTTGTTATTGGT [XGTACX_site8010],8.69 ± 0.37
17,ACCGGTGGAACGTTTTGTACATATATAATAATATAT [XGTACX_site2143],8.62 ± 0.5
18,TAGGTAAATGCAAATTGGTTTAAATCAAAATATAAA [XGTACX_negctrl_site250],8.5 ± 0.62
19,TTTATTATTTTAACGTGTACAAGGTATATAATATTC [XGTACX_site5241],8.57 ± 0.2
